Test results as given in PubChem BioAssay (NCI).
Where a structure was tested more than once in an assay, its records may differ in their call.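 Single-concentration screen, 48 h exposure, 96-well plates. Endpoint: percent growth. Below 10 = active.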 Certain results were filed several times, with different values. This list holds those alone. An entry can have further records. This drug was run again and again over the years, at its own concentration, as given; one value stands for one run. Brackets with × stand for listed records that agree.

Tested on: HT29 colon
Experiment: NCI-60 one-dose screen, 48 h (100 = growth as untreated, 0 = no growth, -100 = all killed)

COc1cccc2c1C(=O)c1c(O)c3c(c(O)c1C2=O)C[C@@](O)(C(=O)CO)C[C@@H]3OC1CC(N)C(O)C(C)O1 (stereo not given in full)
growth (0.25 µM, runs of 2015): inactive: 29.6, 48.6, 38.4, 43 (2×), 44.1, 52.4 (2×), 41.2, 41.6 (2×), 45.8 (2×), 50.6 (3×), 48.5, 46.2, 47.8 (2×), 37.6, 37.1 (3×), 42.4 (3×), 36.8, 40.4, 48.7, 54.4, 39.3, 39 (2×), 50, 49, 46.4, 41.9 (2×), 36.4, 53.2, 48.1 (3×), 42.8 (2×), 39.9, 39.2, 43.2 (2×), 40.7, 45.4 (2×), 44.6, 38.2 (2×), 43.6 (2×), 29.4, 42.5, 47.9 (2×), 49.9, 46.6, 47.2, 36.1, 32.8, 32.3, 51.2, 57.4, 40.3, 26.6, 34.9, 53, 51, 48.2, 44.5, 39.6, 49.2, 46.7 (2×), 44.4, 51.4, 49.1, 41.4% | growth (0.25 µM, runs of 2016): inactive: 44.2 (2×), 42.3 (2×), 44.5 (3×), 43.8, 37.9, 40.2, 49.1 (2×), 41.9, 38.2, 37.6, 38.8 (3×), 36.2 (2×), 40.7, 49.9 (2×), 41.5, 39.3 (2×), 47.9, 40.3, 29.8, 44.8, 43.1, 41.7, 24.8, 39.1, 35.9 (2×), 48.6, 42.2, 39.8, 35.3, 40.1, 48.5 (2×), 46, 40.5, 50.9 (2×), 47.5 (2×), 50.2, 52.7, 45.9, 51.7 (2×), 47.8 (2×), 45, 45.2, 48.1, 48.7, 45.5, 46.2, 60.3, 53.3 (2×), 52.4, 53, 53.4, 57.2, 56.2, 54.2 (2×), 55.6, 51.4, 51.1, 54.4, 51.3, 52.8, 44, 48.8, 51.6, 55.8, 41.3% | growth (0.25 µM, runs of 2017): inactive: 46.2, 43.5 (5×), 47.5 (2×), 53, 42.3, 38.4, 43 (3×), 40.7 (2×), 40.8, 42.5, 41.5, 41, 45 (2×), 42.6 (3×), 39.4, 39.6 (2×), 39.7 (3×), 38.5 (2×), 43.4 (2×), 47.3, 38.9, 41.7 (2×), 36.9, 42.9 (3×), 47.2, 41.3 (2×), 38.2 (2×), 34.5, 40.4, 48, 36.7, 37.7, 34.3, 33.2, 40.2, 45.1, 41.2 (3×), 49.1, 35.9, 38.6 (2×), 48.6, 42.7, 37.4, 39.1 (2×), 38.7, 37.5, 41.8 (2×), 40.6 (2×), 47.8, 43.9, 44.4, 43.8, 42.1, 36.1, 42, 52.8, 55.5, 48.4, 48.2, 43.2% | growth (0.25 µM, runs of 2018): inactive: 45.1 (2×), 44.2, 44.8, 42.3, 47.8, 48.5, 43, 41, 45.6 (2×), 43.9, 43.6, 50.6, 46.6 (2×), 42.9, 49.6 (2×), 38.9, 54.2, 49.3 (2×), 49.1, 51.3, 48.2 (2×), 49.5, 53.4, 44.4, 53.8, 55.8, 51.8, 56.3, 43.4, 34.2, 41.2, 45.8, 50.5, 40.3, 46.5, 47.7, 44.7, 40.7, 41.4, 48, 50, 48.6, 52.8, 46, 61.9, 53.6, 58.5, 24.3% | growth (0.25 µM, runs of 2019): inactive: 40.9, 33.7, 36.4, 34.6, 38.6, 43, 36.5, 40.5, 37.3, 33.2, 41.1, 36.6, 33.5, 42, 40.2, 42.8, 41.3, 31.5, 49, 42.1 (2×), 37.4, 43.6, 46.5, 37.2, 48.2, 56.2, 52.7, 39.4, 35.2, 42.9, 37.8, 40, 49.3, 49.4, 41.6, 61.1, 58.6, 40.1, 38.4, 41.5, 45, 47.3, 50.6, 49.6, 48.6, 44.9, 36.9, 37.7, 40.8% | growth (0.25 µM, runs of 2020): inactive: 46.8 (2×), 40, 56.2, 55.5, 49.9, 40.7, 51, 53.2, 43, 44.4, 39.2, 41.2, 47.3, 43.1, 54.3, 49.5, 47, 47.7, 45.8, 49.3% | growth (0.25 µM, runs of 2021): inactive: 61.2, 61.1, 53.2, 53.5, 58.1, 52, 55.1, 50 (2×), 41.8 (2×), 42.6, 39.3 (2×), 55.8, 45.9, 60.5, 54.9, 43, 44.2, 46.8, 40.1, 46.5 (2×), 47, 43.9 (2×), 47.4, 46.4, 39.9 (2×), 60.6, 57.4, 44.9, 41.2, 38.4, 48.1, 54.2, 48.8, 54.8, 57, 40.7, 34.9, 40.8, 35.8, 19, 50.8, 49.5, 49.4, 37.1, 41.5% | growth (0.25 µM, runs of 2022): active: 4.42%, 5.84% and inactive: 10.3, 45.1, 48.7, 39.3, 22.4, 37.9, 44.5, 54.1, 41, 46, 48.6, 48.3, 44.6, 39.7, 37.3, 66.3, 74.5, 51.7, 65.7, 66.7, 87, 45.7, 44, 51.6, 45.2, 38.6% | growth (25 µM, runs of 1991): active: 4.93, 2.46, 0.25, -27.4, 2.62, 3.68, -11.7, 0, -18.7, -15.8, -5.84, 2.8, -27.5, 3.34, -11.9, -14.2, -6.51, -11.2% and inactive: 97.6% | growth (25 µM, runs of 1992): active: 0.605, 2.63, 1.99, -51.5, -21.4, -14.1 (2×), -18.9, 2.81, -7.32, 6.58, -33.5, -21.8, -36.6, -30.5, -31 (2×), 1.3, 0.731, -13, -8.91, -5.65, 5.66, 2.49, 7.49, 4.22, -34.3, -2.81, -57.5, -16, -90.3, -23.6, -67.5, -53.9, -20.3 (2×), -1.95, -17.2, -1.74, 1.45 (2×), -11.2, 0, 3.65 (2×), 5.26, 1.12, -19.2, -5.52, -18.4, -3.46, -23.1, -22.2, -11.7, 2.18, 0.496, 3.35, 2.51, -6.35, -3.12, -42.3, 0.797, -2.26, 3.21, 3.49, 0.449, -45.3, -7.33, -4.72, -16.7, -7.41, 1.17, -0.167, 3.3, -19.1 (3×), -2.02, -21, -0.769, 3.95, -7.87, 6.52, 0.432, -6.14, -16.3, 1.04, -44.3, 0.943, -25.8, 0.873, -6.7, -2.51, -18.7, -2.37, -0.714, 2.56, -32.4, -23.4, -25.4, -1.4, -19.6, -3.86, -25.9, -12.7, -11.4, -7.64, -36, -15.4, 1.29, -17, 2.41, 1.55, 0.679, 1.64, -32, 3.5, -14.2, -28.1% and inactive: 15.1, 18.8, 13.1, 41.6% | growth (25 µM, runs of 1993): active: 1.42, -14.8, -7.94, -40.6, -17.6, -5.76, 6, -34.4, -43.8, 0.0385, -21, -0.599, -16.8, -36.8, -37.5, -2.91, -53.5, -6.76, -21.6, -37.7, 2.94, -0.955, -30.9, 0.966, -25.7 (2×), -27, 0.41, -29.8, 1.73, -8.59, 5.38, -30.5, 0.346, 7.5, -55.1, 0.363, 4.9, -11.7, -10.1, -21.5, -0.49, -15.5, 1.3, 2.66, -8.6% | growth (25 µM, runs of 1994): active: 7.82, -5.84, -6.25, 4.57, 0.936, -25.7 (2×), -53.3, 6.68, -22.7, 1.87, -15.5, 5.57, 4.06, -0.51, -11.1, 1.13, -45.5, -39.7, -94.2, -5.16, 2.45, 0.756, -6.51, -12.2, 9.92, -2.84, -9.18% and inactive: 10.6% | growth (25 µM, runs of 1995): active: -10, 4.71, -21.3, 7.38, -9.67, -7.49, 4.58, 7.15, 5.13, -24.5, 0.134, -25.7, -20.4, 0.724, -9.27, 0.674, -14.5, 2.52, -8.73, -6.4, -34.4, -26.3, -21.7, -23.4, 1.45, -18.6, 2.34, 1.99, -2.22, 1.61, 1.97, -15.6, 0.594, 0.357, 0.801, -19, -45.4, -14.7, 1.05, -5.62% | growth (25 µM, runs of 1996): active: -21.7 (2×), -25, 4.45, 1.26, -33, 1.68, -23.1, -48.3, -29.1, 9.57, 3.02, -0.296, -39.7, -36.9, 0.282, -24, -22.4, -18.4, 8.38, -11.9, -20.7, -10.5, -3.36, -59.3, -45.4, 5.16, -58.6, -41.5, -4.65, -24.7, 4.43, 3.71, -36.1, 1.77, 2.91, 6.38, 1.3, -6.88, -25.5, 0.853, 3.27, 1.69, 4.72, -14.5, 7.29, 3.37, -27.8, -3.75, -27, 0.547% and inactive: 106% | growth (25 µM, runs of 1997): active: -12.6, -48.1, 5.2, -20.9, -3.08, 4.68, -26.4, -15.5, -19.5, 7.03, -1.33, -24.3, 2.78, -48.8, 2.73, -9.92, -56.4, -32.5, 0.491, 2.46, -29.5, 7.3, 2.7, -35.2, 1.5, -14.7, 1.1, -30.2, -9.6, -33.2, -32.4, 4.48, 0.915, -18.9, 1.92, 2.31, -28% and inactive: 23, 11.2, 10.7, 12.9%
